The source gives no read counts; variants with many changes may rest on few reads.

B1: LINE1-mini (parent)
chain: GGCAGAGCUCAACACAGCGUGGCAAAGUGGCUGUGGCUAGACUGCC

The data set covers variants of B1. Description: self-cleavage, relative activity (ratio to wild type); higher = more cleavage; in vitro, sequencing; the parent is a self-cleaving ribozyme.
In the case of G7C U9A C18U, the self-cleavage came out at 0.04.

For G7A G22U A26U G30A, the self-cleavage worked out at 0.15.

Take G7A C18A U38A: the self-cleavage worked out at 0.21.

Turning to G7A G30C A41U, the self-cleavage is 0.04.

In the case of G7A U9A A14U G19A G22U G36C, the self-cleavage stood at 0.05.

For the variant G7C U9G G33A, the self-cleavage came out at 0.2.

For the variant G7C C8U U9A A16G C18A C42G, the self-cleavage was found to be 0.22.

For G7C G29A G35C G36U A39U, the self-cleavage is 0.08.

G7A A16G A24G: the self-cleavage was 0.16.

Turning to G7C G22C G30C A39U, the self-cleavage was 0.06.

Regarding G7C U9A U28A A41C, the self-cleavage came out at 0.05.

For A6U G30A U32A G33C, the self-cleavage turned out to be 0.03.

G7C C8G G44U C46U: the self-cleavage was found to be 0.03.

In the case of G7C A11G A12G G17C, the self-cleavage amounted to 0.01.

Turning to G7C A24C G44C, the self-cleavage turned out to be 0.04.

On to G7A U9A A11G C15U G19U U28A G29A, for which the self-cleavage was determined as 0.01.

For G7A C15G G17C C18A G35C, the self-cleavage was 0.06.

As for G7C A26C A41U U43G, the self-cleavage came to 0.05.

For A6U G35U G36A, the self-cleavage was 0.44.

On to G7C C23A G27C U32A, for which the self-cleavage turned out to be 0.05.

Turning to G7C C31U C46A, the self-cleavage amounted to 0.09.

In the case of G7C G22U C37A, the self-cleavage turned out to be 0.01.

Consider G7A G29U C46A, for which the self-cleavage was 0.1.

With G7C U20C A25G U43C, the self-cleavage was found to be 0.03.

Regarding G7A G22U C42A, the self-cleavage was 0.18.

As to G7C C10A C18G G35C G36A, the self-cleavage turned out to be 0.03.

As to G7A C8A C23U A24U, the self-cleavage came out at 0.06.

G7A A24G G40C: the self-cleavage came to 0.02.

For G7C C8A G17U U38C A39C C45U, the self-cleavage was found to be 0.28.

Regarding G7C C23G C31G U34C A39C, the self-cleavage turned out to be 0.01.

For A6U U20A A25C, the self-cleavage is 0.85.

As for A6U U28A G30A C45U, the self-cleavage came out at 0.19.

On to G7C C13A A25U A26G, for which the self-cleavage worked out at 0.08.

Turning to G7A A11U C46G, the self-cleavage is 0.01.

Consider G7A G21U C42U, for which the self-cleavage was 0.62.

For G7C A39G C45A, the self-cleavage was 0.03.

For the variant G7A A11U G27U C37A, the self-cleavage is 0.04.

For G7C G17C C46A, the self-cleavage turned out to be 0.05.

As for A6U G29U G40U, the self-cleavage was found to be 0.28.

Consider G7A C10U C45U, for which the self-cleavage stood at 0.08.

With G7C A12G G40A, the self-cleavage turned out to be 0.04.

Regarding G7C C15G C23U A24G C37U, the self-cleavage amounted to 0.02.

Regarding A6U U20A A39C, the self-cleavage is 0.28.

As to G7C G19U G40A, the self-cleavage came out at 0.01.

Take G7C A41U C42A: the self-cleavage is 0.01.

On to G7C A26U G36C A41U, for which the self-cleavage turned out to be 0.2.

As for G7C C15G U43A, the self-cleavage came out at 0.48.

As for G7A C10G G21A U28C, the self-cleavage amounted to 0.03.

In the case of G7C C8G A26G U28A, the self-cleavage is 0.25.

For the variant G7C G17C G22U, the self-cleavage came to 0.04.

Regarding G7A A16C G30U, the self-cleavage was 0.31.

G7A G17C A26C C31U: the self-cleavage came to 0.04.

As for G7A C13G G27U G44U, the self-cleavage came to 0.06.

In the case of A6U U28C G33A U43C, the self-cleavage was determined as 0.1.

G7C A25C G29U U34A C37A: the self-cleavage came out at 0.06.

Consider A6U U9G A12G G22A U28A G33C, for which the self-cleavage was 0.

Turning to G7C C13A C23U G27U U32C, the self-cleavage amounted to 0.02.

In the case of G7C G27A G29A C31U, the self-cleavage is 0.14.

In the case of G7C A24C C42A, the self-cleavage was found to be 0.04.

Consider G7A C8A C10A U43C, for which the self-cleavage was 0.02.

G7C G36U U38C: the self-cleavage turned out to be 0.07.

Regarding G7A U9G G33A C46U, the self-cleavage turned out to be 0.05.

For the variant G7A A11G C31U U32A, the self-cleavage came out at 0.01.

Regarding G7C A14U U34G G44A, the self-cleavage is 0.01.

For the variant G7A G21C G22A, the self-cleavage was found to be 0.04.

Take G7A U9G G19A C45U: the self-cleavage was determined as 0.08.

As to G7C C10A U34A C42U, the self-cleavage came to 0.01.

Take G7A C13U C37U G44C: the self-cleavage is 0.36.

G7A C13U G21U C23G A24U C31U: the self-cleavage was 0.03.

Consider G7C A14G A25C G30A, for which the self-cleavage amounted to 0.07.

Consider G7C A14U U20A C37U, for which the self-cleavage amounted to 0.03.

On to G7C C15U A41C G44C, for which the self-cleavage was 0.15.

Consider G7A C8A U20C U34C C42A, for which the self-cleavage stood at 0.14.

Turning to A6U U9G U20C G21A, the self-cleavage was 0.05.

Take G7C C31A G33U: the self-cleavage amounted to 0.08.

In the case of G7A U34A G36C U38G C42A, the self-cleavage amounted to 0.12.

Consider G7A U9G A26C, for which the self-cleavage worked out at 0.26.

As for G7C C23U G27A, the self-cleavage came to 0.18.

For A6U U9A C46U, the self-cleavage was 0.16.

On to G7A C8U G21A G35A G36A, for which the self-cleavage came to 0.7.

As to G7A C10A G19U U28C G33C, the self-cleavage is 0.03.

Take G7A C18A G21C: the self-cleavage came out at 0.08.

Regarding G7A C18A G27A C37U, the self-cleavage was 0.14.

Consider A6U G30U C31U, for which the self-cleavage was determined as 0.08.

On to G7C U20C A24C C46U, for which the self-cleavage was determined as 0.02.

Regarding G7C C10U A25U, the self-cleavage worked out at 0.02.

For the variant A6U G22U G30U, the self-cleavage came out at 1.46.

As to A6U U9A G33A, the self-cleavage was 0.17.

On to G7A G19A U20C A39G, for which the self-cleavage was 0.15.

With G7C C10U A16U A24C G27U G29A G40A, the self-cleavage was 0.01.

As for G7A G17C A25G, the self-cleavage worked out at 0.01.

On to G7C C8A G17C, for which the self-cleavage worked out at 0.07.

Regarding G7A C18U G19U G30U G44U, the self-cleavage is 0.4.

For G7C G22C C37G, the self-cleavage was determined as 0.01.

As for A6U G22U G40A, the self-cleavage is 0.18.

Turning to A6U G22U G40U, the self-cleavage is 0.5.

Regarding G7A U9C G29A, the self-cleavage was found to be 0.07.

G7C C23U U43A: the self-cleavage amounted to 0.12.

Take G7A A12U G19U U32C: the self-cleavage stood at 0.03.

With G7A A11U C37U, the self-cleavage is 0.04.

Regarding G7C G19U G22U A39C, the self-cleavage came out at 0.03.

As to G7C U9A C10G U20C C45U, the self-cleavage was 0.02.

For the variant G7C C13A G19C U20A, the self-cleavage was determined as 0.06.

In the case of G7A G22U C31U U34A, the self-cleavage stood at 0.03.

For the variant G7C C13G G19C A39G, the self-cleavage was determined as 0.06.

For G7A C8A U20A C45G, the self-cleavage worked out at 0.19.

Turning to G7A C8G G36C C42A, the self-cleavage came to 0.04.

As to G7C A12U A14G G29A G30C C42A C45A C46A, the self-cleavage came to 0.03.

As for G7A G33A C45A C46G, the self-cleavage is 0.04.

For G7A G19A U20C, the self-cleavage came out at 0.07.

For A6U U28C U34A G35A, the self-cleavage was found to be 0.1.

Turning to G7C C10U A16C G30A, the self-cleavage came out at 0.05.

Consider G7C C10A A14C G17A, for which the self-cleavage was 0.01.

With G7A U9A A16U G35U G36C A41U C46U, the self-cleavage came to 0.09.

As to G7A A11G U20C, the self-cleavage stood at 0.04.

G7C C8G A14C G17U G19A G36U: the self-cleavage turned out to be 0.21.

As for G7A C10A G21C U43G, the self-cleavage is 0.

In the case of G7A C8U G21C G29C U32A, the self-cleavage worked out at 0.11.

Consider G7A C15A C23G U32A, for which the self-cleavage came to 0.08.

A6U U28G C31A: the self-cleavage worked out at 0.09.

G7C C10G G19U C45U: the self-cleavage was found to be 0.01.

G7C A16C U28A: the self-cleavage worked out at 0.

For G7A G40U C46U, the self-cleavage was 0.11.

Take G7A C13A G17C G22C G44U: the self-cleavage was determined as 0.09.

Regarding G7A C31A G35C G40A, the self-cleavage worked out at 0.11.

On to G7A C10U A24C C31U, for which the self-cleavage was determined as 0.06.

In the case of G7A C18A A26C C31A, the self-cleavage was 0.01.

Regarding G7C G36C C37A G40A, the self-cleavage stood at 0.41.

Consider G7A C8A A16C, for which the self-cleavage worked out at 0.22.

Take G7A C13U U43C: the self-cleavage worked out at 1.42.

Regarding G7C G30C G44U C46U, the self-cleavage was 0.01.

Consider A6U U20G U28A, for which the self-cleavage is 0.28.

As to G7A C8G A12G C37A, the self-cleavage amounted to 0.

Regarding G7A C10A G17C G35C G36U, the self-cleavage was found to be 0.03.

Consider G7C A12G G27U, for which the self-cleavage came out at 0.02.

Consider G7C U20A A25G G29C, for which the self-cleavage is 0.02.

In the case of A6U G22U U34G C37G, the self-cleavage was determined as 0.08.

In the case of G7A G27U C46A, the self-cleavage amounted to 0.29.

In the case of G7A C8G C23U U32C U34C C37A, the self-cleavage was 0.06.

Regarding G7A G17U U43C, the self-cleavage turned out to be 0.3.

As to A6U G36U U38G, the self-cleavage was found to be 0.01.

For the variant G7C G29U U32G, the self-cleavage is 0.02.

As to A6U U9G G33U, the self-cleavage is 0.01.

For the variant G7C U9A C37U, the self-cleavage came to 0.02.

As to G7C C13A G33C, the self-cleavage stood at 0.06.

With G7C G21C G30U G35C C46G, the self-cleavage came out at 0.02.

In the case of G7C U9C A14C G21A G27C, the self-cleavage amounted to 0.03.

As to G7C C10A C23G, the self-cleavage is 0.01.

Consider G7C G35A G44U, for which the self-cleavage was 0.13.

On to G7A G19C A39U, for which the self-cleavage was found to be 0.33.

Regarding G7C C31G C37U, the self-cleavage was found to be 0.02.

As to G7A C18U G27A, the self-cleavage was 0.12.

With G7C C8G A11U G21A C31A, the self-cleavage was 0.02.

With G7A C18A A26G C42U, the self-cleavage worked out at 0.07.

With G7A U20A U34A G35A U43A, the self-cleavage came out at 0.03.

With G7A A16C U34A, the self-cleavage amounted to 0.03.

Regarding G7C C8G C10A A14C U20A C23U C37G, the self-cleavage was 0.01.

Regarding G7C G21A C23A G30A G36A, the self-cleavage was 0.29.

As to G7A C10G G21U, the self-cleavage was determined as 0.02.

With G7A C10A C23U, the self-cleavage was found to be 0.03.

As to G7C A12G A14U G17A, the self-cleavage worked out at 0.04.

For A6U U9C C10G U38A, the self-cleavage turned out to be 0.01.

Turning to G7A G17A A39U C42G, the self-cleavage came to 0.05.

As for G7A U9C A12U, the self-cleavage was 0.02.

For the variant G7A G17A G35U G44A, the self-cleavage was determined as 0.04.

G7A U9C C13G U20A: the self-cleavage was determined as 0.02.

As for G7A U9C A26U, the self-cleavage amounted to 0.19.

The record behind these values is the RNAGym collection of RNA variant scans (doi:10.7554/elife.90254).
